Measurements as given in the antibiotic and cytotoxicity screens of Wong et al. (2023).
Some of the results follow.

Legend:
HSkMC = human skeletal muscle cells; experiment: cytotoxicity call (relative viability < 0.9); details: 10 µM
HepG2 = experiment: cytotoxicity call (relative viability < 0.9); details: 10 µM
S. aureus RN4220 = experiment: growth inhibition call (relative growth <= 0.2); details: 50 µM

C[C@H](CO)N1C[C@H](C)[C@@H](CN(C)Cc2ccc(Cl)c(Cl)c2)OCCCC[C@H](C)Oc2ccc(NS(=O)(=O)c3cccs3)cc2C1=O
cytotoxicity call (HSkMC): inactive
cytotoxicity call (HepG2): inactive
growth inhibition call (S. aureus RN4220): inactive

C[C@H]1CN([C@@H](C)CO)C(=O)c2cc(NC(=O)Nc3ccc(C(F)(F)F)cc3)ccc2O[C@H]1CN(C)Cc1ccc(Oc2ccccc2)cc1
cytotoxicity call (HSkMC): active
cytotoxicity call (HepG2): active
growth inhibition call (S. aureus RN4220): inactive

C[C@H]1CN([C@@H](C)CO)C(=O)c2cc(/C=C/c3ccccc3)cnc2O[C@@H]1CN(C)C(=O)Nc1ccc(C(F)(F)F)cc1
cytotoxicity call (HSkMC): inactive
cytotoxicity call (HepG2): inactive
growth inhibition call (S. aureus RN4220): inactive

COc1ccccc1S(=O)(=O)N[C@@H]1C=C[C@H](CC(=O)N2CCN(C)CC2)O[C@@H]1CO
cytotoxicity call (HSkMC): inactive
cytotoxicity call (HepG2): inactive
growth inhibition call (S. aureus RN4220): inactive

COc1cccc(C(=O)Nc2ccc3c(c2)C(=O)N(C)[C@H]2CC[C@H](CC(=O)NCCCN4CCOCC4)O[C@@H]2CO3)c1
cytotoxicity call (HSkMC): inactive
cytotoxicity call (HepG2): inactive
growth inhibition call (S. aureus RN4220): inactive

CS(=O)(=O)[C@H]1CCNC1
cytotoxicity call (HSkMC): inactive
cytotoxicity call (HepG2): inactive
growth inhibition call (S. aureus RN4220): inactive

C[C@H](CO)N1C[C@H](C)[C@@H](CN(C)Cc2cncnc2)Oc2ncc(C#C[C@@H](C)O)cc2C1=O
cytotoxicity call (HSkMC): inactive
cytotoxicity call (HepG2): inactive
growth inhibition call (S. aureus RN4220): inactive

C[C@@H]1CCCCO[C@@H](CN(C)CC2CC2)[C@@H](C)CN([C@H](C)CO)C(=O)c2cc(NC(=O)C3CCCCC3)ccc2O1
cytotoxicity call (HSkMC): inactive
cytotoxicity call (HepG2): inactive
growth inhibition call (S. aureus RN4220): inactive

C[C@@H]1CN([C@@H](C)CO)C(=O)Cc2cc(NC(=O)Cn3cnnn3)ccc2O[C@H]1CN(C)C(=O)NC1CCCCC1
cytotoxicity call (HSkMC): inactive
cytotoxicity call (HepG2): inactive
growth inhibition call (S. aureus RN4220): inactive

C[C@@H]1CN([C@@H](C)CO)C(=O)Cc2cc(NS(=O)(=O)c3ccc(F)cc3)ccc2O[C@H]1CN(C)C(=O)Nc1cccc2ccccc12
cytotoxicity call (HSkMC): inactive
cytotoxicity call (HepG2): inactive
growth inhibition call (S. aureus RN4220): inactive

CC(C)=C[C@H]1[C@@H](c2nc3cc(Br)ccc3o2)C1(C)C
cytotoxicity call (HSkMC): inactive
cytotoxicity call (HepG2): inactive
growth inhibition call (S. aureus RN4220): inactive

C[C@@H]1CN([C@H](C)CO)C(=O)c2cc(NS(=O)(=O)c3ccccc3)ccc2O[C@H]1CN(C)S(=O)(=O)c1ccccc1
cytotoxicity call (HSkMC): inactive
cytotoxicity call (HepG2): inactive
growth inhibition call (S. aureus RN4220): inactive
